Test results taken from the supplement of paper PMC11417369.
± gives the standard deviation of the averaged measurements. The list shows a part of the results.

What follows are sequences tested on PfAP2-I AP2 domain 3 (GST-tagged) (assay: gcPBM binding intensity (ln(normalized median fluorescence intensity)); higher = stronger DNA binding).
Summary of the method: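 DNA-binding domains from P. falciparum, fused to GST and produced in E. coli, were put on an Agilent 4 × 180k double-stranded probe array for 1 h in 1× PBS holding 1% milk, 0.2 mg/ml BSA, 0.5% salmon testes DNA and 0.03% Triton X-100. Probes were primer-extended, 36 bp long and drawn from intergenic genomic regions, with negative controls included. After Alexa488 anti-GST antibody detection and a 488 nm scan, binding intensity was set as the highest Masliner-normalised natural-log median intensity across replicate spots of either probe orientation.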

Sequence | gcPBM binding intensity (ln)
TATATGTTTAATTTCACACACAAATATACATTTTAA [CACACA_site4171] | 7.62 ± 0.46
CATTAGCATTTTATTACACACAATAAATTAGAAGTA [CACACA_site7837] | 7.74 ± 0.46
ATATTTATTTATATCATACACACTAATATGTATATT [CACACA_site7576] | 7.86 ± 0.45
TTTTAAAACAATGAGATTCCTTTCTTTTTTTCTTTT [CACACA_negctrl_site1320] | 7.05 ± 0.69
CTTAATGATAAATACATACACACAAAAAATAATATA [CACACA_site2577] | 7.71 ± 0.59
TATCCCTTAGAATACACACCCATATGAGGGTGAACT [CACACA_site5610] | 7.76 ± 0.26
TTTTTGTTAACAATGGGTACAAAAAAAAGGAAAATA [XGTACX_site7466] | 8.08 ± 0.45
CCCAAAAAATATCATAGTACTCAACATGACTACTAT [XGTACX_site7838] | 7.7 ± 0.55
AATTTTGTATAGGTATCACACATGAAATATATTATT [CACACA_site5526] | 7.71 ± 0.61
AAATAAAATAATAAAACATGCAAAAATAATGATTTA [TGCATGCA_site415] | 7.71 ± 0.76
ATAAAGATTAACAAAGTGCATTTATATATATAATCT [GTGCAC_site9407] | 9.865 ± 0.092
TATAAATAAATAGATACACACATATTTATAAATACA [CACACA_site6219] | 7.51 ± 0.4
ATAAAAGATATGTATATGTATATGTATATATATATA [TGCATGCA_negctrl_site214] | 9.21 ± 0.22
GCTTAAGGTAAATATAAAATATAGTGTATACTTTAG [XGTACX_negctrl_site585] | 7.42 ± 0.6
TTACGCTGCTATATAGTGCACATAATATATGACCTG | 11 ± 0.24
TGAATAATCAATAGTACACACATATAAATATAAATA [CACACA_site7345] | 7.88 ± 0.31
TTTTATTTATTATTATGTACACACTATATTAAAACA [XGTACX_site1265] | 8.17 ± 0.4
ACTTAGGAAATAAAACGTACATTAAATATATACATA [XGTACX_site2990] | 7.84 ± 0.35
GTATGTATGTATGTATGTACTTATTAATCAGTAAAA [XGTACX_site3844] | 8.93 ± 0.35
TTAAGGCATCAACATAGTACAATTTTTCTATAATAA [XGTACX_site1114] | 7.57 ± 0.45
ATTTAATACAAATACACACACAAATAAATACAGATA [CACACA_site5956] | 7.93 ± 0.55
TTTATAATTCTTACAACACACAATGTACTTTTATAT [CACACA_site8340] | 8.04 ± 0.28
TTTATTTCCTTTTTGTGTACATATATATGTAATTCA [XGTACX_site1718] | 8.05 ± 0.57

Sequence | gcPBM binding intensity (ln)
ATTCTACGCACGCGCACACACAACAAAAAAAAAAAA [CACACA_site3538] | 9.56 ± 0.31
GTGATGGTACAATATACACACTTAAAAAAAAAAAAT [CACACA_site5360] | 7.82 ± 0.28
TATATACATATATATTGTACTTATTTTTATAATGTC [XGTACX_site3453] | 7.83 ± 0.22
CATGTGTGATAATGATGTACTATATTAAGCTAGTCC [XGTACX_site2690] | 7.63 ± 0.54
AAGTATGTATCACAAAGTACTTAAGCATATATTTAA [XGTACX_site4121] | 7.58 ± 0.47
TTGTAATAAATAAAAGTGCATATATGGTTCCACTAT [GTGCAC_site9944] | 9.81 ± 0.11
TTATTTTTTTATTCATGTACACAAGAACATTTCATT [XGTACX_site5744] | 7.82 ± 0.71
TACAAATATGGACACACACACATATATATATATATA [CACACA_site4488] | 9.49 ± 0.43
TAAATATATTGGAGAGGTACACTTTTGGCATTGAAA [XGTACX_site8447] | 7.87 ± 0.61
GTATAATAGAAACACACACACACACCCAAAAAAAAA [CACACA_site2010] | 8.35 ± 0.11
GTATATATAATGTGCCGTACATTTATATATTCAATA [XGTACX_site1051] | 8.16 ± 0.52
TTAAATGTAATATAATGTACGGATATTTACCATAAA [XGTACX_site1472] | 7.82 ± 0.48
CAATATATTATATGGGTGCAAACCACATATAAATAA | 10.1 ± 0.33
TTAGGTATATATAAACGTACTCACAATATCATATAA [XGTACX_site8743] | 7.74 ± 0.48
AAATGTAATAATAAATGTACAAACATATATATGTAT [XGTACX_site8718] | 7.78 ± 0.52
TATATATACTTTTATGTACACACCTATAATATGGGT [CACACA_site1759] | 7.96 ± 0.37
AAGTTTAAAATCTTTGCACACATATAAATAAATATA [CACACA_site2554] | 8.94 ± 0.12
ATAAATAAATAAAAAAGTACATTTCCACTTTTAACA [XGTACX_site81] | 7.74 ± 0.34
TGCACCCACCAACACACACACAACTAAAAAATAATG [CACACA_site2566] | 8.16 ± 0.25
ACATATTAAATATGAGTGCAATATATATATATATAA | 10.9 ± 0.43
TATTATATCTTTTCAAGTACACATAACATACTTATT [XGTACX_site1081] | 7.95 ± 0.59
TATAATTATATAAATTGTACATAAAAAGTTTTTACT [XGTACX_site3621] | 7.71 ± 0.38
GTAAAATTTACATAGAGTACTTATATTTTTTTCTGC [XGTACX_site3414] | 7.58 ± 0.59

Sequence | gcPBM binding intensity (ln)
CACAAATATACAAATACACACAAATATACAAATACA [CACACA_site2385] | 7.72 ± 0.45
CAGTTTACTAATATTGCACACGAATATGAAAAAGAG [CACACA_site8941] | 9.895 ± 0.035
TTTTTCACACTTCAAAAGTGTCAACCTTCTATTCTC [TGCATGCA_negctrl_site489] | 7.75 ± 0.79
TTATCATTTGCCATTGTGCACTTATATGCTCACATT | 10.97 ± 0.028
TTTTTTTTTCAAGAGGTGCGTGTATTTTAACAAAAA | 8.94
AAAAAAAATTATGAAGTGCATTAGTGAATTTGATTG | 10.9 ± 0.3
TTGTCTACAAAAATGTGCTTCTAATCATACGACTTG [CACACA_negctrl_site46] | 7.6 ± 0.75
TACATATATTATTGCACACATATAAAATACCCCCAA [CACACA_site3895] | 10.6 ± 0.28
TCTTGTCTACCTTGTATTTAATATTTACATATATAA [TGCATGCA_negctrl_site320] | 8.25 ± 0.68
TATTTCTTATTACATACACACATATACATAGATGAC [CACACA_site5729] | 8 ± 0.55
TATATGTTTTTATGTACACACTTTTAACCTAAGAAA [CACACA_site4769] | 8.27 ± 0.14
TTCTTGTATATATTTTGTACATATATACCATTTTAG [XGTACX_site2409] | 8.33 ± 0.75
TATTTGTAAAAATTGTGTACTTAGAAAATTCCAAAA [XGTACX_site6007] | 7.84 ± 0.33
AAAAAAAATAAAATAATAAAAATTATGAATATATAT [CACACA_negctrl_site280] | 7.71 ± 0.64
TGGAGGTCAGTTCACAGTACCCAGTAACTCTACGGA [XGTACX_site2549] | 7.24 ± 0.68
ATCATTCCACTTTTCACACATATCTCTATTTCTATC [CACACA_site4723] | 8.31 ± 0.76
AAATGTATAGGAATAATAATAAAAAAAAAAAAAAAT [CACACA_negctrl_site1793] | 7.49 ± 0.59
ATAGGTAATAATAATACACACGGTGAAATATAGATG [CACACA_site9336] | 8.04 ± 0.66
AATAAAATGCAATACATTTTGTTATATAATGTTGTT [CACACA_negctrl_site1525] | 7.54 ± 0.47
CACAATGTAGTGTATAAATACAATAAAAGGTTGTAT [CACACA_negctrl_site700] | 7.74 ± 0.6
ATTTTTTTTTTCTTTTTTTTTTGTTTTTCTCCTTTT [CACACA_negctrl_site1182] | 7.5 ± 0.46
ATTTTTTTTATTATTACACACATATAATAAAAAAAT [CACACA_site1802] | 8.03 ± 0.42
TAAAGTGTAAAATTCACACACATATATATATATATA [CACACA_site4883] | 9.46 ± 0.51

Sequence | gcPBM binding intensity (ln)
ATATTGTAAGTAAACACACACACATATATCTGTATA [CACACA_site4541] | 7.55 ± 0.69
GTATAATTTATTGAACGTACACATATATATATGTAT [XGTACX_site1395] | 7.92 ± 0.28
TTTAAAATAACCAAAAACAAAAAGAAACACAAATGT [GTGCAC_negctrl_site705] | 7.82 ± 0.76
AAAAAAAAAATTTACTGTACACATTTGGGATACTCA [XGTACX_site5191] | 7.58 ± 0.26
GATCAAATAGAAAATACATGCAATGTGTGAAATAAC [TGCATGCA_site835] | 8.32 ± 0.92
TTTCAAATGGAATGTGTGCACATAAATGTAAATAAA | 10.1 ± 0.16
TATAAGTTGATATATACACACATATATAAATATGTA [CACACA_site7526] | 7.4 ± 0.4
TATTTATAAAAATATACACACATACAAATATGCATA [CACACA_site4555] | 7.57 ± 0.5
CTTATTTAATGTATCACACACGAGAATAAAAAATAA [CACACA_site3020] | 7.86 ± 0.54
ATGGTTTTCAGAAAAACATGCATACAATAATAAAAA [TGCATGCA_site815] | 8.02 ± 0.71
AATTAATATATAAATAATAAAAAAAAATATATAAAC [XGTACX_negctrl_site280] | 7.71 ± 0.77
CAATATTTTCATAGATGTACTTTGGACTTATTATAT [XGTACX_site4849] | 7.5 ± 0.37
TAAATAAAAGATACGAGTACGTATGATGTTAACCTC [XGTACX_site8840] | 7.8 ± 0.59
GTATATAGTATGTAGAGTACTAATTTCCATATGTTC [XGTACX_site7816] | 7.7 ± 0.44
ATTTATATATAGGTGTGTCCACAAATAGTATGTAAA [XGTACX_site2916] | 8.19 ± 0.38
TATAACCATATATACACACACATATAAATATAAATA [CACACA_site7089] | 7.67 ± 0.59
TATATTTTAATTTGAAGTACTAATATTTATTTATAT [XGTACX_site7458] | 7.53 ± 0.38
ATATATATATATTTCGTGCACTGATAATATTATTTT | 11.2 ± 0.35
AAGGTGGAAACAATTACACACACACTAAAAAAAAAA [CACACA_site7493] | 8.3 ± 0.61
ATGAAAAAAAATAAAAAATATATATATATATATATA [CACACA_negctrl_site236] | 9.47 ± 0.59
TATTTTTAAACAAAACTGTATTTATTTTTTAAAATT [CACACA_negctrl_site1449] | 7.38 ± 0.54
